# Measurements published in PubChem BioAssay AID504333 (National Center for Advancing Translational Sciences (NCATS), 2011).
# Hit rate of the full screen: of about 360,000 compounds, about 16,000 (4.4%) were called active. Inconclusive results, whose numbers are uncertain, are shown with a selection of clear calls. The call rests on the fitted dose curve; in most records, active means well fitted inhibition curve with a large enough effect; inconclusive means small, poorly fitted or top-dose-only effect; inactive means no such curve, though single readings can be large or run the other way. Where the call is inconclusive, the potency comes from a doubtful curve fit.
# Biological target: Bromodomain adjacent to zinc finger domain protein 2B (Homo sapiens) (UniProt Q9UIF8)
# Sequence of UniProt Q9UIF8 (Q9UIF8 whole entry, looked up, the tested form may be a part): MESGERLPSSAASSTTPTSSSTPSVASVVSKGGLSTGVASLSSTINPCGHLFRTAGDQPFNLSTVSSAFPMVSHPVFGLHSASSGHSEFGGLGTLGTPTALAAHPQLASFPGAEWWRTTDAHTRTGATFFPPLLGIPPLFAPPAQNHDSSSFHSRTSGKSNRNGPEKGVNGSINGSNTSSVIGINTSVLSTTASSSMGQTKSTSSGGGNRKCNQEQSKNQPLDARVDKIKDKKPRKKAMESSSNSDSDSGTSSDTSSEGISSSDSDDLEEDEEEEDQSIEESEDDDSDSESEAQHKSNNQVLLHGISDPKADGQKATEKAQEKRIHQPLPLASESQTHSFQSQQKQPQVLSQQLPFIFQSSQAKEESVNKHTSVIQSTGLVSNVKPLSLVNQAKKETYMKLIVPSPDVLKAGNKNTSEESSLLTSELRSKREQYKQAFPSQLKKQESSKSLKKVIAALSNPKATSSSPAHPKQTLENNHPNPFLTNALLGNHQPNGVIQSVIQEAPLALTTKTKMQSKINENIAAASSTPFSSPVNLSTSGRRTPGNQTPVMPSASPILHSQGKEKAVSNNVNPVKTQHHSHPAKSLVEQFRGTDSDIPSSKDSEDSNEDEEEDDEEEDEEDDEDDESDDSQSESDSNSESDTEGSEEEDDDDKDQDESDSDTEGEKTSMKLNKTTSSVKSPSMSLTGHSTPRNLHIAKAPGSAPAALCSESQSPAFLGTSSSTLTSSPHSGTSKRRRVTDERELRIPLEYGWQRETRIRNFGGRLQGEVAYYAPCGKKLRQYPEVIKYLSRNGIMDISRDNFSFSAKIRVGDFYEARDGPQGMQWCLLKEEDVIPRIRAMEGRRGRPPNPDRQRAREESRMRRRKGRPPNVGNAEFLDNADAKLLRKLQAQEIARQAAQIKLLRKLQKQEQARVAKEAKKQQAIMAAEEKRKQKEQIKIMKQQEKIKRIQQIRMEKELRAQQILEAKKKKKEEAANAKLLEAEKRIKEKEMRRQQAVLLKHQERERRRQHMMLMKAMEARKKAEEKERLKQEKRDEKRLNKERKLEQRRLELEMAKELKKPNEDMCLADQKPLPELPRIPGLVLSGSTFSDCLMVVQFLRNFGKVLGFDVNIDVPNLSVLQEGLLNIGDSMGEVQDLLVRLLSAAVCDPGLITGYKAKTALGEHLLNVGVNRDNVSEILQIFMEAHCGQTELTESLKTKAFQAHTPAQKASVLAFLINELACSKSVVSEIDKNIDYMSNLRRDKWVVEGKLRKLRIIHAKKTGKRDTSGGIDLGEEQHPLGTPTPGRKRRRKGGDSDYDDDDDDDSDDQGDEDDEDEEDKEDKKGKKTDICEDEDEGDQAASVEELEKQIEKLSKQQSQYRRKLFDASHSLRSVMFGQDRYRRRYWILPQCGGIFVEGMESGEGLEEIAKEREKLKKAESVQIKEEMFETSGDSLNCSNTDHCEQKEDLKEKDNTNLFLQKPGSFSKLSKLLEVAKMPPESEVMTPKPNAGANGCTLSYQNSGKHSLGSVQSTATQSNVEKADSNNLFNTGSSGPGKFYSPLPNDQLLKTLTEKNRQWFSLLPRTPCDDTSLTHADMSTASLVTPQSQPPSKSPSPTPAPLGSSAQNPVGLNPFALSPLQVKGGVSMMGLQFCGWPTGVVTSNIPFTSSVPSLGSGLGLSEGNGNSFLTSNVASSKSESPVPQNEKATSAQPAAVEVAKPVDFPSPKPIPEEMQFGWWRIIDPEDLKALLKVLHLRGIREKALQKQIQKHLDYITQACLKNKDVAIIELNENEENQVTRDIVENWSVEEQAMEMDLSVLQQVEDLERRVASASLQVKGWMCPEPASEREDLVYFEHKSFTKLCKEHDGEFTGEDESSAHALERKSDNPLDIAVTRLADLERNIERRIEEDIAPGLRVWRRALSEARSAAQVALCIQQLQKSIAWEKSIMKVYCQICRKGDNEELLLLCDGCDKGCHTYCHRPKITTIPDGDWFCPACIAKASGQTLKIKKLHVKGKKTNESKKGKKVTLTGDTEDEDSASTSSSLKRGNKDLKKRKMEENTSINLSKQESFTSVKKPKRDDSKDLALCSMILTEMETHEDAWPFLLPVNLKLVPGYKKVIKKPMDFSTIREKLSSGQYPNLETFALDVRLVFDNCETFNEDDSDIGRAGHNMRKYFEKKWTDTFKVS
# Experiment: qHTS Assay for Inhibitors of BAZ2B; further: nearly all actives have a fitted effect of over 60% in size
# Conditions: AlphaScreen BAZ2B-H3K14Ac peptide displacement; series mostly up to 114 µM
# How it was run: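 Compounds, titrated to a top concentration of 110 uM, were incubated 30 min at room temperature with preformed BAZ2B/acetyl-K14 H3 peptide complex (50 nM each). Proximity signal was measured by AlphaScreen after 20 min with beads.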
# Potency means the concentration at half of the fitted maximal effect; tags describe the fitted curve by direction and shape.
row,Structure (SMILES),Potency
1,C/C(=C/c1ccccc1)C(=O)N1CCN(c2ccccc2)CC1,active: 56.2 µM
2,Cc1cc([N+](=O)[O-])cc2c1NCC1CC=CC21 (stereo unspecified),"inconclusive: 44.7 µM [inhibitor, partial curve]"
3,Fc1ccc(NC(=S)N2CCCc3ccccc32)cc1,"inconclusive: 79.4 µM [inhibitor, single point]"
4,CCn1c2c(c(=N)c3c1CCC3)CCCC2,inactive
5,CCC(CC)c1nn2c(N)c(/C=C3\C(C)=Nc4ccccc43)c(=O)nc2s1,"inconclusive: 20 µM [inhibitor, single point]"
6,Cc1ccccc1CNC(=O)Cn1cc2c(n1)-c1c(oc(C(=O)N3CCCC3)c1C)CC2,"inconclusive: 79.4 µM [inhibitor, single point]"
7,Cc1cc(NS(=O)(=O)c2ccc(NC(=S)NC(=O)c3ccc(F)cc3)cc2)no1,inactive
8,COc1cc(C(=O)Nc2scc(-c3ccc(Br)cc3)c2C(=O)O)cc(OC)c1OC,"inconclusive: 89.1 µM [inhibitor, single point]"
9,CCCCCOC(=O)CCN1C(=O)/C(=C2\SC(=S)N(CCC(=O)OCCCCC)C2=O)SC1=S,"inconclusive: 79.4 µM [inhibitor, single point]"
10,CC(C)c1ccccc1-n1cc[nH]c1=S,"inconclusive: 89.1 µM [inhibitor, single point]"
11,O=C(NNS(=O)(=O)c1ccc([N+](=O)[O-])cc1)c1cnn(-c2ccccc2)c1-n1cccc1,inactive
12,Cc1ccccc1NCC(=O)c1ccc(Br)cc1,"inconclusive: 89.1 µM [inhibitor, single point]"
13,O=C(Nc1cccnc1)C1CC(c2ccccc2O)=NO1 (stereo unspecified),"inconclusive: 79.4 µM [inhibitor, partial curve]"
14,CC1CN(Cc2cc(=O)n3ccsc3n2)CC(C)O1 (stereo unspecified),"inconclusive: 100 µM [inhibitor, single point]"
15,COc1ccc(N2CCN(C(=O)c3ccccc3N(C)S(=O)(=O)c3ccc(C)cc3)CC2)cc1,active: 39.8 µM
16,CCCCOc1ccc(/C=N/NC(=S)Nc2cccc(C)c2C)cc1,inactive
17,COc1cc(Br)cc(/C=C/c2ccc3cccc(O)c3n2)c1O,"inconclusive: 79.4 µM [inhibitor, single point]"
18,O=C(Cc1ccccc1)Nc1ccc(C(=O)O)cc1,"inconclusive: 3.55 µM [inhibitor, single point]"
19,COc1ccc(CCN2C(=O)CC(Nc3ccc(N4CCOCC4)cc3)C2=O)cc1OC (stereo unspecified),active: 44.7 µM
20,CCc1ccc(Nc2nc3c(S(=O)(=O)c4cccc(Cl)c4)nnn3c3ccsc23)cc1,inactive
21,CN1CCc2c(sc(NC(=O)c3ccc(S(=O)(=O)N4CCCC4)cc3)c2C(N)=O)C1,inactive
22,O=C(CN1C(=O)NC2(CCCC2)C1=O)N1CCN(c2ccccc2O)CC1,inactive
23,CN(C)c1ccc(CNC(=O)CCc2ccc(S(=O)(=O)N3CCCCCC3)cc2)cc1,active: 44.7 µM
24,Cc1occc1-c1nnc(SCC(=O)c2ccc(Cl)cc2)n1C,"inconclusive: 89.1 µM [inhibitor, single point]"

row,Structure (SMILES),Potency
1,CSCC[C@H](NC(=O)[C@@H]1CSC2c3ccccc3C(=O)N21)C(=O)NCc1ccco1 (stereo partly specified),inactive
2,Clc1ccc(COc2cccc(CNCc3ccncc3)c2)cc1,"inconclusive: 79.4 µM [inhibitor, partial curve]"
3,CC(=O)Nc1ccc(S(=O)(=O)NCc2ccc3c(c2)cc(C)n3C)cc1,"inconclusive: 89.1 µM [inhibitor, single point]"
4,CC1=CC(C)C(C[N+]2(C)CCCCC2)C(C)C1 (stereo unspecified),"inconclusive: 89.1 µM [inhibitor, single point]"
5,Cc1cccc(N=C2Sc3nc4c(C)c(C)ccc4cc3CN2CCN2CCOCC2)c1,"inconclusive: 79.4 µM [inhibitor, single point]"
6,O=[N+]([O-])c1ccc(C2=NN(CCO)C(=Nc3ccc(OC(F)(F)F)cc3)SC2)cc1,"inconclusive: 25.1 µM [inhibitor, partial curve]"
7,CCn1ccnc1CN(C)Cc1cn(-c2cc(C)ccc2C)nc1-c1ccccc1,"inconclusive: 56.2 µM [inhibitor, partial curve, poor fit]"
8,O=[N+]([O-])c1cccc(C2NCC(c3ccccc3Cl)c3c2[nH]c2ccccc32)c1 (stereo unspecified),active: 35.5 µM
9,Cc1cc(C(=O)CSCCCn2c(=O)[nH]c3ccccc32)c(C)n1C,"inconclusive: 79.4 µM [inhibitor, single point]"
10,Cn1cccc1C(=O)N1CCN(c2cccc(C(F)(F)F)c2)CC1,"inconclusive: 50.1 µM [inhibitor, partial curve]"
11,NCCc1nnc(SCC(=O)Nc2cccc(Cl)c2)o1,"inconclusive: 70.8 µM [inhibitor, partial curve, poor fit]"
12,COc1ccc(NC(=S)N2CCc3ccccc3C2)cc1OC,"inconclusive: 79.4 µM [inhibitor, single point]"
13,Cc1nn2c(=O)cc(COC(=O)c3ccc(NC(=O)c4ccc(C(C)(C)C)cc4)cc3)nc2s1,inactive
14,O=C(c1cnc2nc3ccccc3n2c1)c1cc(F)ccc1O,inactive
15,Nc1nc(CN2CCN(c3ccccc3F)CC2)nc(N2CCCc3ccccc32)n1,active: 50.1 µM
16,COc1ccc([C@H]2[C@H](C(=O)OC(C)(C)C)N3N=Cc4ccccc4C3C23C(=O)c2ccccc2C3=O)c(OC)c1 (stereo partly specified),"inconclusive: 39.8 µM [inhibitor, partial curve]"
17,CSc1ccc(NC(=O)NCCN2CCc3ccccc3C2)cc1,"inconclusive: 89.1 µM [inhibitor, single point]"
18,COc1cc(/C=C(\C#N)C(=O)c2ccc(O)c(O)c2)cc(I)c1O,active: 39.8 µM
19,O=C(CSC1=NS(=O)(=O)c2ccccc2N1)Nc1nccs1,inactive
20,O=C(c1cccc(N2C(=O)c3ccccc3C2=O)c1)N1CCCCCC1,"inconclusive: 89.1 µM [inhibitor, single point]"
21,Nc1ccccc1C(=O)NNC(=O)C(=O)/C=C(\O)c1ccccc1,"inconclusive: 50.1 µM [inhibitor, partial curve]"
22,CCOC(=O)C1CCN(CC(=O)Nc2cc(S(=O)(=O)N3CCOCC3)ccc2C)CC1,active: 79.4 µM
23,Cc1ccccc1-n1ncc2c1CC(C)(C)CC2NC(=O)c1ccncc1 (stereo unspecified),inactive
24,CCc1nn2c(=O)cc(COc3ccc(NC(=O)c4ccco4)cc3)nc2s1,inactive

row,Structure (SMILES),Potency
1,Cn1cccc1CC(=O)N/N=C/c1ccc([N+](=O)[O-])cc1,"inconclusive: 70.8 µM [inhibitor, partial curve]"
2,Cc1ccc2nc(Cc3ccc(N)cc3)[nH]c2c1,active: 56.2 µM
3,Cc1ccc(S(=O)(=O)C(C#N)c2nc3ccccc3nc2N2CC(C)OC(C)C2)cc1C (stereo unspecified),"inconclusive: 50.1 µM [inhibitor, partial curve]"
4,Cc1ccccc1NC(=S)NCCSc1ccc(Cl)cc1,"inconclusive: 35.5 µM [inhibitor, partial curve]"
5,O=C(NC(=S)Nc1ncccn1)c1ccc(F)cc1,"inconclusive: 89.1 µM [inhibitor, single point]"
6,CCOc1cc(/C=C2\SC(=O)N=C2N)ccc1O,inactive
7,Cc1ccc(NC(=S)N(CCN(C)C)Cc2cc3cc(C)ccc3[nH]c2=O)cc1,"inconclusive: 79.4 µM [inhibitor, single point]"
8,CCc1ccc(NC(=O)CSc2nc(NS(=O)(=O)c3ccccc3)cc(=O)[nH]2)cc1,active: 50.1 µM
9,COc1cccc(NC(=S)N2c3ccccc3CC2C)c1 (stereo unspecified),"inconclusive: 79.4 µM [inhibitor, single point]"
10,CC(=O)n1cc(N(C(=O)CCl)c2ccc([N+](=O)[O-])cc2)c2ccccc21,inactive
11,COc1cc(OC)cc(C(=O)Nc2nc(-c3nnn(-c4ccc(F)c(Cl)c4)c3C)ns2)c1,inactive
12,O=C(O)C1CSC(c2ccncc2)N1 (stereo unspecified),"inconclusive: 89.1 µM [inhibitor, single point]"
13,COc1ccc(C2(CCN)CC(C)N(C)CC2C)cc1 (stereo unspecified),"inconclusive: 89.1 µM [inhibitor, single point]"
14,CCc1ccc(N(CC(=O)NC(C)(C)CC)C(=O)CCC(=O)Nc2nccs2)cc1,"inconclusive: 89.1 µM [inhibitor, single point]"
15,CCOc1ccccc1OCCn1nc2ccccc2n1,"inconclusive: 89.1 µM [inhibitor, single point]"
16,O=C(Cn1cnc([N+](=O)[O-])c1)c1ccc(F)cc1,inactive
17,COc1cccc(CN2CCc3nc(N4CCN(C)CC4)ncc3C2)c1,"inconclusive: 79.4 µM [inhibitor, single point]"
18,CN(C(=O)c1oc(=O)c2ccccc2c1-c1ccccc1)c1cccc(Cl)c1,"inconclusive: 20 µM [inhibitor, full curve, poor fit]"
19,Cc1ccc(/C(C#N)=C\c2ccc(N3CCOCC3)o2)cc1,active: 79.4 µM
20,C#CCOCCOCCOCCNc1nc(N2CCN(C(=O)CCCCCCCCCCNC(=O)Cn3cc(C[C@@H](C)O)nn3)CC2)nc(N2CCN(C(=O)CCCCCCCCCCNC(=O)[C@H](CCCN=C(N)N)n3cc(C[C@@H](C)CC)nn3)CC2)n1,"inconclusive: 70.8 µM [inhibitor, single point]"
21,O=C1C2CC=C(Cl)CC2C(=O)N1c1ncn[nH]1 (stereo unspecified),active: 56.2 µM
22,COc1ccc(C(=O)/C=C/c2cc(OC)c(O)c(OC)c2)c(F)c1,"inconclusive: 50.1 µM [inhibitor, partial curve]"
23,CC(=O)Nc1ccc2c(CSc3nnc(N)s3)cc(=O)oc2c1,"inconclusive: 100 µM [inhibitor, single point]"
